From PubChem BioAssay AID1346428 (National Center for Advancing Translational Sciences (NCATS), 2018)
Screen size: about 48,000 compounds; about 1,200 (2.5%) were called active. About 2% were inconclusive and are not listed.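 The calls were made as follows: active = activation of at least 60% and not above a set upper limit (about 1 call in 100 departs from these limits); inconclusive = activation of 40% to 60%, or above that upper limit; inactive = activation under 40%.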 This is one part of the list.

The compounds below were run against Probable G-protein coupled receptor 32 (Homo sapiens) (UniProt O75388) (assay: qHTS for Agonists of Human Resolvin D1 Receptor DRV1). Details: CHO-K1 GPR32 beta-arrestin PathHunter luminescence, 90 min; at 76.9 µM; hits give high values; zero percent set by DMSO-only wells.
How it was run: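 Agonism was scored by beta-Gal fragment complementation (chemiluminescent read, 1 h detection at ambient temperature) reporting beta-arrestin binding to GPR32 in engineered CHO-K1 cells. Compound treatment lasted 90 min at 37 C, normalized to a DMSO basal control.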
Also: 0% is about no effect.

Sequence of UniProt O75388 (O75388 whole entry, looked up, the tested form may be a part): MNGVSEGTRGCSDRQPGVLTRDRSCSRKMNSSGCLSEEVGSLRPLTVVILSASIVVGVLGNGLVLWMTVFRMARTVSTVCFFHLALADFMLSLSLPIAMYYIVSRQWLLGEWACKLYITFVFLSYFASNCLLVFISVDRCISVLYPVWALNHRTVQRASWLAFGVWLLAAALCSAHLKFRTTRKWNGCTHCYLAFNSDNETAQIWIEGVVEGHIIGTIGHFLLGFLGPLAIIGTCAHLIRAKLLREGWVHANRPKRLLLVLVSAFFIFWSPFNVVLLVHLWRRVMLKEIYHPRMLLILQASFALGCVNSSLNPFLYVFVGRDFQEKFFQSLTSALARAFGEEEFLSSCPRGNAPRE

activation, inactive:
Cc1ccc2c(c1)C(c1ccc(F)cc1)N(C(=O)c1cccc(C(F)(F)F)c1)CC(=O)N2 (stereo unspecified) -17.1%
N#Cc1cccc(NC(=O)CCNS(=O)(=O)c2ccc3c(c2)CCN3C(=O)C2CC2)c1 15.6%
CC(C)OCCCN1C(=O)c2[nH]nc(-c3ccccc3O)c2C1c1cccc(OCc2ccccc2)c1 (stereo unspecified) 34.5%
Cc1c2cnn(CC(=O)N3CCN(c4ccc(F)cc4)CC3)c(=O)c2c(C)n1Cc1ccccc1F -11.2%
O=C(Nc1nnc(S(=O)(=O)N2CCc3ccccc32)s1)c1ccccc1Cl 9.29%
CCOC(=O)c1c(C)[nH]c(CCC(=O)NCCCN2CCN(c3ccccc3F)CC2)c1C -19.8%
COc1ccc(-c2nc(Cn3c(=O)cc(C)c4c(C)nn(-c5ccccc5)c43)c(C)o2)c(OC)c1 -16%
CN(C)c1ccc(CNC(=O)Cn2ccc3cc(S(=O)(=O)N4CCCCCC4)ccc32)cc1 -13.2%
Cc1cc(C)cc(-n2ccnc2SCC(=O)Nc2nc3ccc(C)cc3s2)c1 -0.454%
Cc1ccccc1C(c1c(C)n(C)n(-c2ccccc2)c1=O)c1c(C)n(C)n(-c2ccccc2)c1=O 15.7%
COCCNC(=O)C(=O)NCC(c1cccnc1)N1CCN(c2ccccc2)CC1 (stereo unspecified) 6.74%
Cc1ccc(-n2c(SCC(=O)Nc3c(C)cccc3C)nc(O)c(C)c2=O)cc1 -2.05%
CCC1CN(C(=O)N2CCC(C(=O)NCc3ccco3)CC2)c2ccccc2O1 (stereo unspecified) -9.71%
CC(=O)c1cccc(NC(=O)N2CCC(CN3CCCCC3)CC2)c1 -1.7%
CC(C)c1ccc(NC(=O)Cn2c(=O)n(Cc3nc(-c4ccccc4)no3)c(=O)c3cc4c(cc32)OCO4)cc1 20.8%
CO[C@@]1(NC(=O)Cc2cccs2)C(=O)N2C(C(=O)O)=C(COC(N)=O)CS[C@@H]21 -0.493%
CCOc1ccccc1NC(=O)CN1C(=O)C2(SCC(=O)N2c2ccc(C)cc2)c2ccccc21 (stereo unspecified) -9.19%
CCOc1ccc2c(c1)c(=O)c(C(=O)c1ccc(C)cc1)cn2Cc1ccccc1OC 7.16%
CCS(=O)(=O)c1ncc(Cl)c(C(=O)N(Cc2ccccc2)c2ccc(OC)cc2)n1 -11.1%
Cc1cc(C)c(CN2C(=O)c3ccccc3S(=O)(=O)c3ccc(C(=O)OCC4CCCO4)cc32)c(C)c1 (stereo unspecified) -7.82%
Cc1ccc(-n2ncc3c(=O)n(Cc4ccccc4C)cnc32)cc1C -2.7%
CCc1ccc(NC(=O)c2ccc(F)c(S(=O)(=O)NCCc3ccc(OC)c(OC)c3)c2)cc1 27.3%
CCCN(Cc1cccs1)C(=O)Nc1ccc(F)c(Cl)c1 -8.22%
COc1cc(Cl)c(NC(=O)C(NS(=O)(=O)c2cccs2)C(C)C)c(OC)c1 (stereo unspecified) -11.4%
COc1ccc(OC)c(Nc2c3c(nc4ccccc24)CCC3)c1 -9.92%
COc1cccc(Nc2sc(C(=O)c3ccc(Cl)cc3)c(N)c2C(=O)NCCc2ccc(OC)c(OC)c2)c1 -99.5%
CS(=O)(=O)N1CCc2cc(C(=O)Nc3ccc(S(N)(=O)=O)cc3)ccc21 -9.85%
CCCSc1nnc2n(-c3cccc(C)c3)c(=O)c3c4c(sc3n12)CCCC4 -6.34%
Cc1ccc(C)c(NC(=O)Cn2c(=O)n(Cc3ccc4c(c3)OCO4)c(=O)c3ccccc32)c1 -16.5%
Cc1cccc(C(=O)OCc2cc(=O)n3nc(-c4cccs4)sc3n2)c1 -4.92%
CC(=O)c1ccc2c(c1)N(CCCN1CCC(CCO)CC1)c1ccccc1S2 2.6%
CC(C)(C)OC(=O)N1CCC(c2c(C(=O)N3CCCCC3)cnn2-c2ccc(F)cc2F)CC1 -8.13%
Cn1c(Oc2ccccc2)nc2c1c(=O)n(Cc1ccc(Cl)cc1Cl)c(=O)n2C 15.5%
Cc1ccc(-n2ncc(C(=O)NCCCN3CCN(C)CC3)c2C2CCN(C(=O)OC(C)(C)C)CC2)c(C)c1 -20.7%
CCCC(=O)Nc1ccc(NC(=O)c2sc3ccccc3c2Cl)cc1 9.44%
CCc1ccc2nc(N(Cc3cccnc3)C(=O)c3cccs3)sc2c1 -27.5%
NS(=O)(=O)c1cccc2c1c([N+](=O)[O-])cc1nc(O)c(O)nc12 -25.3%
COCCn1c(SCC(=O)c2ccccc2)nc2cc(C(=O)NC3CCCC3)ccc2c1=O 0.748%
CC(=O)c1cccc(NC(=O)c2noc3c2CC(C)CC3)c1 (stereo unspecified) -18.5%

activation, active:
CC(C)CCNc1ncnc2c1cnn2-c1cccc(Cl)c1 91.6%
O=C(Cc1ccc(Cl)cc1)Nc1ccc2nn(-c3ccccc3)nc2c1 84.5%
